Measured values from a collection of fitness landscapes (doi:10.1016/j.celrep.2020.107928).
Over roughly 81,000 sequences, “one-hybrid fitness for binding parS DNA” has its median near -0.17; the highest 2% begin near 0.51. Some of the results follow.

B1: Caulobacter ParB omega fusion; a variant is named by its letters at X, in order, B8GW30 (parent)
chain: MESVVVGEPGMSEGRRGLGRGLSALLGEVDAAPAQAPGEQLGGSREAPIEILQRNPDQPRRTFREEDLEDLSNSIREKGVLQPILVRPSPDTAGEYQIVAGERAWRAAQRAGLKTVPIMVRELDDLAVLEIGIIENVQRADLNVLEEALSYKVLMEKFERTQENIAQTIGKSXSHVANXMRLLXLPDEVQSYLVSGELTAXHARAIAAAADPVALAKQIIEGGLSVRETEALARKAPNLSAGKSKGGRPPRVKDTDTQALESDLSSVLGLDVSIDHRGSTGTLTITYATLEQLDDLCNRLTRGI

Variants of: B1
Test: one-hybrid fitness for binding parS DNA (scaled: cognate 1, non-cognate 0); higher = stronger binding
Settings: with parS DNA site
Method in brief: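 Pre- and post-selection plasmids were Illumina-sequenced, three replicate libraries were pooled, and any variant with under 10 reads was removed. The libraries were Caulobacter ParB with four specificity codons randomised, selected in E. coli USO through a HIS3 reporter whose site is 19 bp from the promoter. Cells grew 48 hours at 37°C on M9 without histidine, with 0.1 mM IPTG and 5 mM 3-AT. Fitness is the log change in variant-to-wild-type read ratio, rescaled against cognate and non-cognate.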

| Variant | one-hybrid fitness for binding parS DNA |
| --- | --- |
| ACLA | ≤ 0.2 |
| GSCC | ≤ 0.2 |
| QCGK | ≤ 0.2 |
| RMVD | ≤ 0.2 |
| TKAD | ≤ 0.2 |
| YTHL | ≤ 0.2 |
| NAKI | ≤ 0.2 |
| RSYA | 0.602 |
| AANE | ≤ 0.2 |
| NCRR | ≤ 0.2 |
| NYNG | ≤ 0.2 |
| GRKM | ≤ 0.2 |
| QQEG | ≤ 0.2 |
| KLTI | ≤ 0.2 |
| GPQC | ≤ 0.2 |
| SIDC | ≤ 0.2 |
| RINM | 0.381 |
| CYFC | ≤ 0.2 |
| RIVQ | ≤ 0.2 |
| DFIT | ≤ 0.2 |
| LCLD | ≤ 0.2 |

| Variant | one-hybrid fitness for binding parS DNA |
| --- | --- |
| MREY | ≤ 0.2 |
| YNWS | ≤ 0.2 |
| QTAL | ≤ 0.2 |
| QPNN | ≤ 0.2 |
| DMIS | ≤ 0.2 |
| FPPC | ≤ 0.2 |
| PYPS | ≤ 0.2 |
| VDTG | ≤ 0.2 |
| GDQT | ≤ 0.2 |
| SKAT | ≤ 0.2 |
| AAAM | ≤ 0.2 |
| TDQY | ≤ 0.2 |
| GVGA | ≤ 0.2 |
| MHQV | ≤ 0.2 |
| QRAV | ≤ 0.2 |
| WEMG | ≤ 0.2 |
| AASN | ≤ 0.2 |
| LCST | ≤ 0.2 |
| GWGR | ≤ 0.2 |
| HKGS | ≤ 0.2 |
| PNDL | ≤ 0.2 |

| Variant | one-hybrid fitness for binding parS DNA |
| --- | --- |
| LCEL | ≤ 0.2 |
| VDEV | ≤ 0.2 |
| LMIG | ≤ 0.2 |
| DYGL | ≤ 0.2 |
| PNYD | ≤ 0.2 |
| RSLF | 0.228 |
| RCHN | 0.459 |
| RTRV | ≤ 0.2 |
| LIRL | ≤ 0.2 |
| HGVA | ≤ 0.2 |
| YIQV | ≤ 0.2 |
| APKS | ≤ 0.2 |
| PDLC | ≤ 0.2 |
| LLYS | ≤ 0.2 |
| DVAS | ≤ 0.2 |
| GYHW | ≤ 0.2 |
| NNLA | ≤ 0.2 |
| QSRR | ≤ 0.2 |
| ENKF | ≤ 0.2 |
| TEYC | ≤ 0.2 |
| VGIS | ≤ 0.2 |

| Variant | one-hybrid fitness for binding parS DNA |
| --- | --- |
| TAWS | ≤ 0.2 |
| YGLF | ≤ 0.2 |
| NRAS | ≤ 0.2 |
| LRVT | ≤ 0.2 |
| QCLI | ≤ 0.2 |
| HRCC | ≤ 0.2 |
| LRYR | ≤ 0.2 |
| LRAR | ≤ 0.2 |
| GMTD | ≤ 0.2 |
| NMKG | ≤ 0.2 |
| LVCC | ≤ 0.2 |
| MELI | ≤ 0.2 |
| ILAD | ≤ 0.2 |
| AAGK | ≤ 0.2 |
| PHHC | ≤ 0.2 |
| MYHW | ≤ 0.2 |
| PLAG | ≤ 0.2 |
| KQMS | ≤ 0.2 |
| GHYL | ≤ 0.2 |
| AHIH | ≤ 0.2 |
| GEQR | ≤ 0.2 |
